± gives the standard deviation of the averaged measurements. The list shows a part of the results.
test system: PfAP2-EXP AP2 domain (GST-tagged); experiment: gcPBM binding intensity (ln(normalized median fluorescence intensity)); higher = stronger DNA binding
Method in brief: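 Binding intensity is the highest Masliner-normalised natural-log median intensity over replicate spots in either probe orientation. To obtain it, GST-tagged P. falciparum DNA-binding domains made in E. coli were incubated for 1 h on an Agilent 4 × 180k array of primer-extended double-stranded 36-bp intergenic genomic probes plus negative controls. Detection used Alexa488 anti-GST antibody with scanning at 488 nm.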

Sequence	gcPBM binding intensity (ln)
TTTTCAGAAAGACATGCATACAAAAATAAAAAAGAT [TGCATGCA_site814]	9.35 ± 0.42
TTTTGCAAATATTACTGTACACAATCTCATATAATT [XGTACX_site2584]	8.77 ± 0.45
ACCCAAGAGAAAAGAGAAAGAAATATGTGTATATTG [GTGCAC_negctrl_site214]	8.54 ± 0.42
AAAAAAAACAGACACACACACACATATACATACATA [CACACA_site2665]	8.41 ± 0.38
ATATATATATATATAACATGCAAAGTTCAAAAAAAA [TGCATGCA_site943]	10 ± 0.14
TTATAGTAATAATAATGTACATTTATACACATATAT [XGTACX_site1965]	8.56 ± 0.31
TTTTTTTTATTATAAATATATATATTATAAAACGAA [XGTACX_negctrl_site189]	8.29 ± 0.36
TTCTTTGTTTTTTTTTTTTTTTTAAAAGATAATATT [XGTACX_negctrl_site381]	8.43 ± 0.25
TTTATTTTTCATTGGGGTACACAAGTTTATTTTTGA [XGTACX_site4262]	8.96 ± 0.47
ATATCGTTTTTAAATTGTACATTCACTATAGAATAA [XGTACX_site6442]	8.45 ± 0.042
ATTTTTTCTTTTCGATGTACCCTTCTTATTCTTTAT [XGTACX_site3782]	9.26 ± 0.69
TATATCGCCTTCAAAAGTACTCATATAAAAAAAAAA [XGTACX_site7123]	8.36 ± 0.27
ATATATTTATTTTGTGCACACAACGCAAACCTTTTA [CACACA_site3508]	9.165 ± 0.078
TTTGAACTTTTATATACACACATTATTATAGTATAG [CACACA_site6851]	8.38 ± 0.38
AGTTCATATTTAAAAAGTACATATTTAAAAACTTCT [XGTACX_site4882]	8.26 ± 0.36
AAAAAAAAAAAAAAATGTACTTTTATTATTAATATA [XGTACX_site6357]	8.22 ± 0.17
ATGCATATATTTATGTGTACATATATTTGTAGGGGG [XGTACX_site6063]	10.6 ± 0.19
ATTAATTAAAATAGTTGTACAATCAAAAAAACAAAA [XGTACX_site7660]	9.05 ± 0.5
AACAAAGAGAAATAAACACACACAAAATAAAGAAAA [CACACA_site8704]	8.87 ± 0.62

Sequence	gcPBM binding intensity (ln)
TTTTTGTATGCTTCCCGACTACATTATGTCGTAAAT [GTGCAC_negctrl_site164]	8.95 ± 0.45
ATATCGAAAATTTGGTGTACATTTTTATTTGTTCAA [XGTACX_site3094]	8.55 ± 0.35
AGAATATATAAGTATACACACATATATATATATATA [CACACA_site201]	10.1 ± 0.38
TATAAAATAATTAAATGTACATAATATATAAAATAT [XGTACX_site6777]	8.72 ± 0.36
TTATAAATATTCACTGTGCACTGATGGAATATAAAT [GTGCAC_site9739]	8.64 ± 0.15
GATATTACGTGTTTGGTATTTTTTGATGTTAATAGG [CACACA_negctrl_site105]	8.8 ± 0.52
TTTTTATTTTTTTATGCATGTGATGAAACGTGCCTA [TGCATGCA_site141]	8.9 ± 0.37
TAATAAATCAAATGCACACACACAAAAAAAAAAAAA [CACACA_site161]	8.36 ± 0.57
ATAATTAACAAATACACACACACACCCAGACAAAAA [CACACA_site4445]	9.04 ± 0.28
AACAATTAGAATAACGCATGCATTTATAATATAGAA [TGCATGCA_site595]	9.52 ± 0.071
TGTGTATATATAAATACACACCAAATGTTAATATAT [CACACA_site8501]	8.28 ± 0.28
AATATGTCTTAAAAAAGTACATAAATTTTAACTTCA [XGTACX_site6670]	8.215 ± 0.049
TTTTTAATCATAATATGTACATATAAAAATGGTTTG [XGTACX_site3996]	8.49 ± 0.4
AAACAAATAAAAATATGTACACATTTTTTCATTATG [XGTACX_site5449]	8.39 ± 0.19
AAAATATTAAATATGTGTACATATAATAGTTCAATG [XGTACX_site5957]	8.41 ± 0.29
TTAAAAGAAAATAGGTGTACACATAATATATACATA [XGTACX_site7697]	8.92 ± 0.057
TCATATATATATATATGTACATATTTATGTATGTAT [XGTACX_site6291]	8.45 ± 0.16
ACATAGATCATAGGTTGTACGAAGGTATCCTTTATT [XGTACX_site694]	8.55 ± 0.4
ACTTTTTGAATGTTTGCACACAAATCTCATAATTTT [CACACA_site358]	8.79 ± 0.42

Sequence	gcPBM binding intensity (ln)
TTTTTCTTTGAATAAATACACACGAGAAATGAAAGT [CACACA_site1688]	8.99 ± 0.34
AAAAGGAGCAAATACAAAAAAATGAACAAAAAAAAA [CACACA_negctrl_site716]	8.78 ± 0.49
TTTTGTAATGCTTTTTTTTTTTTTTTTTTTTTTTTT [CACACA_negctrl_site932]	9.15 ± 0.13
CATACCTATAGACACACACACACACGCACGCACAAA [CACACA_site6374]	8.69 ± 0.42
ACCATATATTAAAAAGTGCATTAAATATATAAATAT [GTGCAC_site9443]	8.93 ± 0.38
AATAGAAATTATATAAACATAAATGAATAAATAAAT [CACACA_negctrl_site1817]	8.53 ± 0.4
AGTATTATTTACTGCGCATGCTATTTATATATATTA [TGCATGCA_site876]	9.01 ± 0.44
AATTAAATGGATAAATGTACATATGTGAATATATTT [XGTACX_site84]	8.87 ± 0.26
AATTATCAGGAATGATGTACTGAAATAAAAAAAAAA [XGTACX_site3280]	8.6 ± 0.47
CTACATATGTATAATATGCACACGTCATTTTCCCCT [CACACA_site2107]	8.88 ± 0.23
ATTTTATTTAAATACACACACATATATATATTATAT [CACACA_site4607]	8.75 ± 0.37
CACAGACACCCATACACACACATACCCATATATATA [CACACA_site5023]	8.79 ± 0.32
ACACAAAAATGAAAAATGAAAAGGGTAATATATATA [CACACA_negctrl_site1490]	9.06 ± 0.17
AAAAAAAAAAAAAAAGCACACATCATATTTTAATTC [CACACA_site9109]	8.46 ± 0.39
ATACTGTATAGTCGCACACAAAAATATAAAATATTT [CACACA_site6004]	8.4 ± 0.45
AAAATTTGAAAAAGGGGTACTTAATAAAAGTTTCAT [XGTACX_site932]	8.4 ± 0.31
TTACACAAGGATAAAAACATATGTATGATTATATAT [CACACA_negctrl_site654]	8.61 ± 0.54
TATATCAAAAACGAGACATGCATGCCGTTCATTTTG [TGCATGCA_site211]	8.95 ± 0.28

Reference: the supplement of paper PMC11417369
